Experimental data: paper PMC4336329 (PLoS ONE, 2015)
Out of some 310,000 compounds screened, about 2,200 (0.71%) showed an effect of 50% or more. Effects have a minus sign here. The list shows a part of the results.

biological target: human ether-à-go-go-related gene (hERG) potassium channel (human, UniProt Q12809); experiment: primary screen, population patch clamp on CHO cells stably expressing hERG
Experimental: Briefly, Chinese hamster ovary (CHO) cells stably expressing the hERG channel were dislodged from tissue culture flasks and dispensed into PPC plates. […] During the recording, background leak currents were estimated by a 100 ms step to -80 mV from an initial holding potential of -70 mV and subtracted from the subsequent current measurement. The campaign was conducted in two phases using slight differences in recording protocol. In the first phase, the initial voltage pulse used a 100 ms step to -30 mV from a holding potential of -70 mV, a 2 s conditioning step to +25 mV, and a 2 s test step to -30 mV. During the second phase of the screen, the potential during the conditioning step was raised to +45 mV. In both phases of the campaign, a secondary voltage pulse was applied using the same parameters as the second phase initial pulse. The initial and secondary pulses were applied in the absence of compound, and upon application of 1 μM and 10 μM test concentrations. Small molecule effects on hERG current density were quantified by […].

Sequence of human ether-à-go-go-related gene (hERG) potassium channel (Q12809 whole entry, looked up): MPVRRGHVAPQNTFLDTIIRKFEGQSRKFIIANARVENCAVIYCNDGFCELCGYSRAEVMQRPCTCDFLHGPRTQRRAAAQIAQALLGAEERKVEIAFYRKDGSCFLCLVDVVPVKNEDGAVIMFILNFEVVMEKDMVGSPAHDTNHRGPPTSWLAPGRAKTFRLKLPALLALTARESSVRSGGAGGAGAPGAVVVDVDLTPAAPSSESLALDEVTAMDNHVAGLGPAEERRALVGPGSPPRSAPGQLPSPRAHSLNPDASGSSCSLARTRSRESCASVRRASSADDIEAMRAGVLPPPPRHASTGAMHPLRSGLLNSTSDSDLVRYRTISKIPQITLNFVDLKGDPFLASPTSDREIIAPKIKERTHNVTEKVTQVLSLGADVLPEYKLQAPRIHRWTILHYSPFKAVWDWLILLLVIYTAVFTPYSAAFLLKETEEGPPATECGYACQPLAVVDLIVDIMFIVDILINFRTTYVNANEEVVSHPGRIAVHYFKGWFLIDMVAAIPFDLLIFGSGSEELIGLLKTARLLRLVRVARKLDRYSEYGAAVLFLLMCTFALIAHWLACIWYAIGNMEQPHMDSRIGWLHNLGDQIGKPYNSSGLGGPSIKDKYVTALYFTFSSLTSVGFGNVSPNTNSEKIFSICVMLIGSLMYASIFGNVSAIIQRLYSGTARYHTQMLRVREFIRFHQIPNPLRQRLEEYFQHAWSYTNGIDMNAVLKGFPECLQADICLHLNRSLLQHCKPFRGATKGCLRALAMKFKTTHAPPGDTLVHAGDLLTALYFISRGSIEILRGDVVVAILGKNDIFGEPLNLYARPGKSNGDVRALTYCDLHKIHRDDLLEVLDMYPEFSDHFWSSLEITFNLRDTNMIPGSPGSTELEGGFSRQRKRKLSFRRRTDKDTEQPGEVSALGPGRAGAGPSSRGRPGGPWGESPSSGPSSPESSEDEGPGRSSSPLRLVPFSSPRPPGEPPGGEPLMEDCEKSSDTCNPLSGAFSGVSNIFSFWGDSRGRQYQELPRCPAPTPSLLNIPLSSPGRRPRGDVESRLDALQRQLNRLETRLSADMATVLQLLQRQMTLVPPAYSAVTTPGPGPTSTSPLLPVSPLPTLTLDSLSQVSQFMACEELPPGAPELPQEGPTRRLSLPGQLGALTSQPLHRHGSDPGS

| Compound | hERG current change (%, negative = inhibition) at 1uM [%] |
| --- | --- |
| Cc1ccc(S(=O)(=O)Cn2nnnc2C(CC(C)C)N2CCN(C)CC2)cc1.Cl (centres unmarked) | 8.74 |
| N#Cc1ccc(-n2nccc2-c2cnc3n(c2=O)CCS3)cc1 | 14.8 |
| Cn1cc(C(=O)N2CCc3ccccc3C2)c(=O)c2cc(S(=O)(=O)N3CCCCC3)ccc21 | -0.811 |
| O=C(O)C(Cc1c[nH]c2ccccc12)N1C(=O)C2C3c4ccccc4C(c4ccccc43)[C@@H]2C1=O (some centres unmarked) | 5.72 |
| COc1ccc(-n2c(C)ccc2C)c([N+](=O)[O-])c1 | 9.16 |
| CSc1cc(C)n(-c2ccccc2C)c(=S)c1C(C)=O | 16.8 |
| COc1ccc(C)cc1Nc1nc(C)nc2sc(C)cc12 | 8.89 |
| O=C(c1ccc(Oc2ccc(Cl)cc2)c([N+](=O)[O-])c1)N1CCCC1 | 10.3 |
| O=C(Nc1nc2n(n1)C(c1ccccc1)CC(c1ccc(Cl)cc1)N2)c1ccco1 (centres unmarked) | 5.27 |
| COc1cc([C@@H]2Oc3cc(C4Oc5cc(O)cc(O)c5C(=O)[C@H]4O)ccc3O[C@H]2CO)ccc1O (some centres unmarked) | 5.38 |
| Cc1ccsc1C(=O)NCc1ccc(Cl)cc1 | 14.5 |
| CCCCn1c(=O)c(Cc2ccccc2)c(O)c2ccccc21 | 5.71 |
| O=S(=O)(Nc1cccc(-c2ccc(N3CCCCCC3)nn2)c1)c1ccccc1Cl | 18.1 |
| CCC(C)NC(=O)Cn1nc(Cc2ccncc2)c2ccccc2c1=O (centres unmarked) | 10.1 |
| Cc1cccc(NS(=O)(=O)c2ccc(C3CCCCC3)cc2)n1 | 12.3 |
| O=C(CSc1nnc(-c2ccncc2)n1Cc1ccco1)Nc1cccc(O)c1 | 5.64 |
| O=C(NCCCN1CCC(Cc2ccccc2)CC1)C1CC(=O)N(C2CCCC2)C1 (centres unmarked) | 0.521 |
| CCC1=NN(C(=O)CCc2ccccc2)C(O)(C(F)(F)F)C1 (centres unmarked) | 10.9 |
| Cc1ccccc1-c1nc(C(=O)NCC2CCCO2)cc2c1[nH]c1ccccc12 (centres unmarked) | 6.42 |
| CCOc1ccc(OCC)c(NC(=O)C2CCN(S(=O)(=O)c3ccc4c(c3)CC(C)N4C(C)=O)CC2)c1 (centres unmarked) | -19.3 |
| CC(=O)N1CC=C2C(C#N)=C(N)C(C#N)(C#N)[C@H](c3ccoc3)[C@H]2C1 | -11.6 |
| O=C(Cc1cccs1)Nc1ccccc1 | 12.9 |
| CCN(C(=O)c1cccs1)c1nnc(-c2ccncc2)s1 | 5.82 |
